Results on 1 molecule are retold here after the supplement of paper PMC8728848.

The list shows a part of the results.

Experiment in all cases: glycan array binding signal (z-score within array); higher = stronger binding
Holding throughout (details): glycan notation: IUPAC condensed, linker removed

Test [1] addresses Gal(b1-4)GlcNAc(b1-3)Gal(b1-3)GlcNAc. Summed up:
(§1)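 The binding signal is a Z-score computed within each array. Data were drawn from 3228 arrays in the Consortium for Functional Glycomics database, restricted to those with a known protein sequence. Scores were averaged over arrays of the same protein sequence at different concentrations or buffers, and over linkers, and negative values can be taken as non-binding.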

Test [2] deals with Gal(b1-4)GlcNAc(b1-3)Gal(b1-4)Glc. Summed up:
as §1

Test [3] deals with Gal(b1-4)GlcNAc(b1-3)Gal(b1-4)GlcNAc. Summed up: as §1
Test [4] addresses Gal(b1-4)GlcNAc(b1-3)Gal(b1-4)GlcNAc(b1-2)Man(a1-3)[Gal(b1-4)GlcNAc(b1-3)Gal(b1-4)GlcNAc(b1-2)Man(a1-6)]Man(b1-4)GlcNAc(b1-4)GlcNAc. Summed up: as §1
The target in test [5] is Gal(b1-4)GlcNAc(b1-3)Gal(b1-4)GlcNAc(b1-2)Man(a1-3)[Gal(b1-4)GlcNAc(b1-3)Gal(b1-4)GlcNAc(b1-2)Man(a1-6)]Man(b1-4)GlcNAc(b1-4)[Fuc(a1-6)]GlcNAc. Summed up:
as §1

The target of test [6] is Gal(b1-4)GlcNAc(b1-3)Gal(b1-4)GlcNAc(b1-2)[Gal(b1-4)GlcNAc(b1-3)Gal(b1-4)GlcNAc(b1-6)]Man(a1-6)[Gal(b1-4)GlcNAc(b1-3)Gal(b1-4)GlcNAc(b1-2)Man(a1-3)]Man(b1-4)GlcNAc(b1-4)GlcNAc. Summed up: as §1
Test [7] concerns the target Gal(b1-4)GlcNAc(b1-3)Gal(b1-4)GlcNAc(b1-2)[Gal(b1-4)GlcNAc(b1-3)Gal(b1-4)GlcNAc(b1-6)]Man(a1-6)[Gal(b1-4)GlcNAc(b1-3)Gal(b1-4)GlcNAc(b1-2)Man(a1-3)]Man(b1-4)GlcNAc(b1-4)[Fuc(a1-6)]GlcNAc. The method in brief: as §1
The target of test [8] is Gal(b1-4)GlcNAc(b1-3)Gal(b1-4)GlcNAc(b1-3)Gal(b1-4)GlcNAc. Summed up: as §1
The target of test [9] is Gal(b1-4)GlcNAc(b1-3)Gal(b1-4)GlcNAc(b1-3)Gal(b1-4)GlcNAc(b1-2)Man(a1-3)[Gal(b1-4)GlcNAc(b1-3)Gal(b1-4)GlcNAc(b1-3)Gal(b1-4)GlcNAc(b1-2)Man(a1-6)]Man(b1-4)GlcNAc(b1-4)GlcNAc. Summed up: as §1
Test [10] deals with Gal(b1-4)GlcNAc(b1-3)Gal(b1-4)GlcNAc(b1-3)Gal(b1-4)GlcNAc(b1-2)Man(a1-3)[Gal(b1-4)GlcNAc(b1-3)Gal(b1-4)GlcNAc(b1-3)Gal(b1-4)GlcNAc(b1-2)Man(a1-6)]Man(b1-4)GlcNAc(b1-4)[Fuc(a1-6)]GlcNAc. Summed up:
as §1

For test [11], the target named is Gal(b1-4)GlcNAc(b1-3)Gal(b1-4)GlcNAc(b1-3)Gal(b1-4)GlcNAc(b1-2)[Gal(b1-4)GlcNAc(b1-3)Gal(b1-4)GlcNAc(b1-3)Gal(b1-4)GlcNAc(b1-6)]Man(a1-6)[Gal(b1-4)GlcNAc(b1-3)Gal(b1-4)GlcNAc(b1-3)Gal(b1-4)GlcNAc(b1-2)Man(a1-3)]Man(b1-4)GlcNAc(b1-4)[Fuc(a1-6)]GlcNAc. The method in brief:
as §1

Test [12] addresses Gal(b1-4)GlcNAc(b1-3)Gal(b1-4)GlcNAc(b1-3)Gal(b1-4)GlcNAc(b1-3)Gal(b1-4)GlcNAc(b1-2)Man(a1-3)[Gal(b1-4)GlcNAc(b1-3)Gal(b1-4)GlcNAc(b1-3)Gal(b1-4)GlcNAc(b1-3)Gal(b1-4)GlcNAc(b1-2)Man(a1-6)]Man(b1-4)GlcNAc(b1-4)GlcNAc. The method in brief: as §1
For test [13], the target named is Gal(b1-4)GlcNAc(b1-3)Gal(b1-4)GlcNAc(b1-3)Gal(b1-4)GlcNAc(b1-3)Gal(b1-4)GlcNAc(b1-2)Man(a1-3)[Gal(b1-4)GlcNAc(b1-3)Gal(b1-4)GlcNAc(b1-3)Gal(b1-4)GlcNAc(b1-3)Gal(b1-4)GlcNAc(b1-2)Man(a1-6)]Man(b1-4)GlcNAc(b1-4)[Fuc(a1-6)]GlcNAc. Summed up:
as §1

Test [14] concerns the target Gal(b1-4)GlcNAc(b1-3)Gal(b1-4)GlcNAc(b1-3)Gal(b1-4)GlcNAc(b1-3)Gal(b1-4)GlcNAc(b1-2)[Gal(b1-4)GlcNAc(b1-3)Gal(b1-4)GlcNAc(b1-3)Gal(b1-4)GlcNAc(b1-3)Gal(b1-4)GlcNAc(b1-6)]Man(a1-6)[Gal(b1-4)GlcNAc(b1-3)Gal(b1-4)GlcNAc(b1-3)Gal(b1-4)GlcNAc(b1-3)Gal(b1-4)GlcNAc(b1-2)Man(a1-3)]Man(b1-4)GlcNAc(b1-4)[Fuc(a1-6)]GlcNAc. Summed up:
as §1

The target in test [15] is Gal(b1-4)GlcNAc(b1-3)Gal(b1-4)GlcNAc(b1-3)Gal(b1-4)GlcNAc(b1-3)Gal(b1-4)GlcNAc(b1-3)Gal(b1-4)GlcNAc(b1-2)Man(a1-3)[Gal(b1-4)GlcNAc(b1-3)Gal(b1-4)GlcNAc(b1-3)Gal(b1-4)GlcNAc(b1-3)Gal(b1-4)GlcNAc(b1-3)Gal(b1-4)GlcNAc(b1-2)Man(a1-6)]Man(b1-4)GlcNAc(b1-4)GlcNAc. The method in brief: as §1
Test [16] concerns the target Gal(b1-4)GlcNAc(b1-3)Gal(b1-4)GlcNAc(b1-3)Gal(b1-4)GlcNAc(b1-3)Gal(b1-4)GlcNAc(b1-3)Gal(b1-4)GlcNAc(b1-2)Man(a1-3)[Gal(b1-4)GlcNAc(b1-3)Gal(b1-4)GlcNAc(b1-3)Gal(b1-4)GlcNAc(b1-3)Gal(b1-4)GlcNAc(b1-3)Gal(b1-4)GlcNAc(b1-2)Man(a1-6)]Man(b1-4)GlcNAc(b1-4)[Fuc(a1-6)]GlcNAc. The method in brief:
as §1

Test [17] concerns the target Gal(b1-4)GlcNAc(b1-3)Gal(b1-4)GlcNAc(b1-3)Gal(b1-4)GlcNAc(b1-3)Gal(b1-4)GlcNAc(b1-3)Gal(b1-4)GlcNAc(b1-2)[Gal(b1-4)GlcNAc(b1-3)Gal(b1-4)GlcNAc(b1-3)Gal(b1-4)GlcNAc(b1-3)Gal(b1-4)GlcNAc(b1-3)Gal(b1-4)GlcNAc(b1-6)]Man(a1-6)[Gal(b1-4)GlcNAc(b1-3)Gal(b1-4)GlcNAc(b1-3)Gal(b1-4)GlcNAc(b1-3)Gal(b1-4)GlcNAc(b1-3)Gal(b1-4)GlcNAc(b1-2)Man(a1-3)]Man(b1-4)GlcNAc(b1-4)[Fuc(a1-6)]GlcNAc. Summed up: as §1

The target in test [18] is Gal(b1-4)GlcNAc(b1-3)Gal(b1-4)GlcNAc(b1-3)Gal(b1-4)GlcNAc(b1-3)Gal(b1-4)GlcNAc(b1-3)Gal(b1-4)GlcNAc(b1-3)Gal(b1-4)GlcNAc(b1-2)Man(a1-3)[Gal(b1-4)GlcNAc(b1-3)Gal(b1-4)GlcNAc(b1-3)Gal(b1-4)GlcNAc(b1-3)Gal(b1-4)GlcNAc(b1-3)Gal(b1-4)GlcNAc(b1-3)Gal(b1-4)GlcNAc(b1-2)Man(a1-6)]Man(b1-4)GlcNAc(b1-4)GlcNAc. Summed up:
as §1

The target in test [19] is Gal(b1-4)GlcNAc(b1-3)Gal(b1-4)GlcNAc(b1-3)GalNAc. Summed up:
as §1

B1: Epa1 (Candida glabrata) (protein)
chain: MGSSHHHHHHSSGLVPRGSHMTSSNDISLASKDPTTFPLGCSPDITTPKKGLSMELYSYDFRKKGSYPCWDAAYLDPNYPRTGYKSHRLLAKVDGVTGNINFYYHATKGCTPQLGHLPASYNYPKPLTMTNFTMLLYGYFRPKVTGFHTFTISADDLLFVNFGAGNAFDCCRRDSSADHFGNYQAYAIWGSKTAKDELTVHLDAGVYYPIRLFYNNREYDGALSFTFKTESNENTVSDFSEYFFSLDDTEEGCPGLISYD
On to B1, for which the “glycan array binding signal (z-score)” value is -0.155 in [1]; 0.551 in test [2]; 0.031 in test [3]; 0.327 in [4]; 1.04 in test [5]; 1.39 in test [6]. For the same molecule, the “glycan array binding signal (z-score)” value in test [7] was 3.08; in test [8], -0.021; in [9], 0.944; in test [10], 1.77; in test [11], 3.06; in test [12], 0.374. Besides, the “glycan array binding signal (z-score)” value in test [13] is 0.354; in test [14], 1.76; in test [15], 0.744; in [16], 0.385; in [17], 1.62; in [18], 0.53. Further, in [19], the “glycan array binding signal (z-score)” value was -0.122.
